Measurements reported in article PMC4336329 (PLoS ONE, 2015).
In all, about 310,000 compounds went through this assay and about 14,000 (4.5%) showed an effect of 50% or more. The effect is printed as a negative number. The list shows a part of the results.

biological target: human ether-à-go-go-related gene (hERG) potassium channel (human, UniProt Q12809); assay: primary screen, population patch clamp on CHO cells stably expressing hERG
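Note: peak tail current of the secondary pulse compared with the same well before compound.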

human ether-à-go-go-related gene (hERG) potassium channel, sequence (Q12809 whole entry, looked up): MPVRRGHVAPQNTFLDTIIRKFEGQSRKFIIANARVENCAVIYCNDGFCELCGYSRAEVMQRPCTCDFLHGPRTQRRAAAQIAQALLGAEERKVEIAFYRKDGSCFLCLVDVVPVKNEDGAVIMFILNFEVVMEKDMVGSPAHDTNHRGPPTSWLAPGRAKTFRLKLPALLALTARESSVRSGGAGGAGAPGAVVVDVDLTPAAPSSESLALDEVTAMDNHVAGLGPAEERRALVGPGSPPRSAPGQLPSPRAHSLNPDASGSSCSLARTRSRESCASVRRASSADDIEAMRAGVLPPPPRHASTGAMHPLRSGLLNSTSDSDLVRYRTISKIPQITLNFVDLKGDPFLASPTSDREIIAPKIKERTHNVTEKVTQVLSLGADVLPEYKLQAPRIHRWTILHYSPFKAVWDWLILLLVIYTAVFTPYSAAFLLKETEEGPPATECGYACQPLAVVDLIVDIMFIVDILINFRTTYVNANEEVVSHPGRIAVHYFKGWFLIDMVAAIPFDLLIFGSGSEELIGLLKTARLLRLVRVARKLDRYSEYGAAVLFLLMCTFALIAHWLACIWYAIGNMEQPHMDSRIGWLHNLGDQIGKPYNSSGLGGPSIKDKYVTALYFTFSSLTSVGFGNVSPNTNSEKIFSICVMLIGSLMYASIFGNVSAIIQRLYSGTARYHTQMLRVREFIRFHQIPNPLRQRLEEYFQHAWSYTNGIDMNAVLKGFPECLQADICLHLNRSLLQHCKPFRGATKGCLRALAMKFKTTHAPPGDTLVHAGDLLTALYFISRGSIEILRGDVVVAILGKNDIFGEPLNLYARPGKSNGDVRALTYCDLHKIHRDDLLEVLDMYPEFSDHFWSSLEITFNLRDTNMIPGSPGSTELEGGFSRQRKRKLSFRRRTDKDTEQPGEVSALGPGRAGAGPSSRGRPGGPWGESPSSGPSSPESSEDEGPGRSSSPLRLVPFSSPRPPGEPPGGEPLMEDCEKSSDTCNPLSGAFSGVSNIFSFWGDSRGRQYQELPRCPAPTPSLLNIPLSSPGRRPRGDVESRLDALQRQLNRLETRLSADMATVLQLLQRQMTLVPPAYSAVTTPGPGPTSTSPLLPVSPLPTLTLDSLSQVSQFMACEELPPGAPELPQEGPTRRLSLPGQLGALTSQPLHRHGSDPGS

| Compound | hERG current change (%, negative = inhibition) at 10uM |
| --- | --- |
| CCOCCc1nnc(NC(=O)CCC2CCCCC2)s1 | 8.26% |
| O=C(c1cccc(F)c1)N1CCC(c2nc3ccccc3s2)CC1 | -49.9% |
| CCOC(=O)CNC(=O)N1CCc2ccc(NC(=O)c3ccccc3OC)cc2C1 | 0.878% |
| CC(=O)N1CCC(N(CCCOC(C)C)S(=O)(=O)c2ccc([N+](=O)[O-])cc2)CC1 | -35.3% |
| O=C(/C=C/c1ccc(O)c([N+](=O)[O-])c1)c1ccc2ccccc2c1 | 18.4% |
| COc1ccc(N(Cc2ccccc2)S(=O)(=O)c2cccc(C(=O)NC3=NCCS3)c2)cc1 | 6.28% |
| Cc1ccc(SC(C)C(=O)NCC(C)C)cc1 (stereo not shown) | 7.23% |
| Cn1nc(-c2ccccc2)c(C(=O)NC(C(=O)O)c2ccccc2)c1Cl (stereo not shown) | 14.2% |
| COC(=O)c1cn(NC(=O)c2cc(OC)c(OC)c(OC)c2)c(=O)c2ccccc12 | 22.9% |
| Cc1cccc(OCc2nnc(SCC(=O)Nc3ccc(C)c(C)c3)o2)c1 | 5% |
| Cc1cccc(-c2nc3c(c(SCC(=O)N4CCOCC4)n2)Cc2c(CO)cnc(C)c2O3)c1 | 5.78% |
| Cn1c(=O)cc(OCC(=O)N2CCN(Cc3ccc4c(c3)OCO4)CC2)c2ccccc21 | -33.4% |
| CCc1ccc(NC(=O)CSc2nnc(Cc3cccn3C)n2-c2ccc(OC)cc2)cc1 | -19.5% |
| Cc1cc(C)cc(C(=O)OCC(=O)NCC(F)(F)F)c1 | 1.96% |
| Cc1ccsc1/C=N\NC(=O)c1n[nH]c2c1CCC2 | -2.09% |
| CCC1CCCCN1C(=O)CSc1nnc(-c2cccc(Cl)c2)o1 (stereo not shown) | -38.5% |
| O=C(O)C(=O)O.O=C(c1ccccc1)c1ccc(OCCCCN2CCCCC2)cc1 | -52.6% |
| C=CCN(c1ccccc1)S(=O)(=O)c1cccc(C(=O)Nc2cccc(C)n2)c1 | -21.7% |
| NC(=O)c1ccccc1OCC(=O)NS(=O)(=O)c1ccc(Cl)cc1 | 5.11% |
| Cc1ccccc1Cn1cc(NC(=O)CCCn2nc([N+](=O)[O-])cc2C)cn1 | -7.52% |
| Cc1cc(NS(=O)(=O)c2ccc(NC(=O)c3ccco3)cc2)no1 | 3.51% |
| O=C(/C=C/c1ccc2c(c1)OCCCO2)c1ccc2ccccc2c1O | -8.79% |
| O=C(NNC(=O)c1sccc1-n1cccc1)c1cccs1 | 8.21% |
| CCOc1c(Cl)cc(CNCc2ccccn2)cc1OC.Cl | -18.7% |
| CC1CCCN(C(=O)c2cc(N3C(=O)C4C5CCC(C5)C4C3=O)ccc2Cl)C1 (stereo not shown) | 2.82% |
| C=CCn1c(SCC(=O)c2c(N)n(C)c(=O)n(C)c2=O)nnc1-c1ccncc1 | 17.5% |
| O=C(N/N=C/c1ccc(-c2ccccc2)o1)c1ccccc1O | 10.6% |
| O=C1C(c2c(O)[nH]c3ccccc23)=Nc2ccccc21 | 16.5% |

| Compound | hERG current change (%, negative = inhibition) at 10uM |
| --- | --- |
| COc1ccccc1Nc1ncccc1C(=O)NCc1ccccc1 | 0.328% |
| O=C(CCc1nc2ccccc2c(=O)[nH]1)Nc1cc(Cl)ccc1N1CCCC1 | 10.6% |
| COc1cc(NC(=S)NCc2ccco2)cc(OC)c1OC | 5.61% |
| COc1ccc(NS(=O)(=O)c2cc(NC(=O)/C=C/c3cccs3)ccc2N2CCOCC2)cc1 | -14.4% |
| Cc1ccc(S(=O)(=O)CCC(=O)OCC(=O)c2c[nH]c3ccccc23)cc1 | -8.93% |
| Cn1cc(Cl)c(-c2n[nH]c(=S)n2C2CCCCC2)n1 | 11.6% |
| COc1cccc(CNC(=O)C2CCN(S(=O)(=O)c3ccc4c(c3)NC(=O)C(C)S4)CC2)c1 (stereo not shown) | -12.6% |
| COc1cc(C(=O)NCCCNc2nc3c(C)cc(C)cc3cc2C#N)cc(OC)c1OC | 17.8% |
| COc1ccc(Cc2nnc(NN)[nH]c2=O)cc1OC | 12.4% |
| CCCCN(C(=O)c1ccc(C)c(S(=O)(=O)N2CCOCC2)c1)c1c(N)n(CC(C)C)c(=O)[nH]c1=O | -48.6% |
| O=[N+]([O-])c1cc(-c2ccc([As](=O)(O)O)cc2)ccc1[As](=O)(O)O | 24.1% |
| CC(C)Nc1nc(NC(C)C)nc(Oc2ccc(OCc3ccccc3)nn2)n1 | 3.84% |
| COCCn1c(N)c(N(Cc2ccccc2)C(=O)Cc2ccccc2F)c(=O)[nH]c1=O | 5.33% |
| O=C(O)CCn1cc(/C=C/C(=O)c2ccc(Cl)cc2)c(-c2ccc(Br)cc2)n1 | 0.108% |
| CN(C)C=O.COc1ccc(-n2cnnc2SCC(=O)Nc2ccccc2F)cc1 | -15.7% |
| C=CC(=O)NN(C)c1ncc(C(F)(F)F)cc1Cl | 23.3% |
| CCC(=O)N(CC)C1=C(O)c2ccccc2C(=O)C1=O | -2.52% |
| O=[N+]([O-])c1cccc2c([N+](=O)[O-])cccc12 | 8.81% |
| Cc1cccc(S(=O)(=O)Nc2ccc(-c3cn4ccccc4n3)cc2)c1 | 10.3% |
| COc1ccc(NC(=O)CN(C)C(=O)Cc2ccc3c(c2)OCCO3)cc1 | 15.5% |
| Cc1cn(C2CC(OC(=O)C(C)C)C(CO)O2)c(=O)[nH]c1=O (stereo not shown) | 1.06% |
| O=C(COC(=O)c1ccccc1SCC(=O)N1CCCC1)Nc1ccccc1C(F)(F)F | 4.16% |
| CCCCS(=O)c1snnc1C (stereo not shown) | 20.4% |
| O=C1Nc2ccc(NS(=O)(=O)c3cccs3)c3cccc1c23 | -12.3% |
| Cn1c2ccccc2c2c(C(=O)N3CCN(c4ccc(F)cc4)CC3)cn(C3CCCC3)c(=O)c21 | -24.3% |
| O=S(=O)(N1CCCCC1)n1nnc2ccccc21 | -32.6% |
| CCOc1ccc(NC(=O)CC2C(=O)N(c3cccc(OC)c3)C(=O)N2C(C)C)cc1 (stereo not shown) | 5.3% |
